Data from the supplement of paper PMC10369915.
The other results are listed elsewhere or left out. No stated cut-off is given here; in the data, active = 3.2 or more and inactive = the rest. Most of these values are background signal.

Each binder was assayed against SHP2 C-SH2 domain E139D (assay: enrichment score (SH2-bound / input frequency) (ratio); bacterial display of known human phosphotyrosine sites (pTyr-Var adds point mutants) read by sequencing; higher = stronger binding; tyrosines were phosphorylated by kinases first). Conditions: peptide library: pTyr-Var.
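Further: displayed peptides selected on beads carrying the immobilized SH2 domain, with library peptides lacking any tyrosine serving as negative controls.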

Binder | enrichment score
SFPPTYRFERG [INPPL1_Y661_YF] | inactive: 0.993
PPTYRYERGSR [INPPL1_Y663] | inactive: 0.145
PSTYRYERGSR [INPPL1_Y663_P659S] | inactive: 0.292
NNPAYYVLEGV [INPPL1_Y987] | inactive: 0.985
SNPAYYVLEGV [INPPL1_Y987_N982S] | inactive: 0.967
FQLENCCNGGG [INS_Y108_Y108C_YF] | inactive: 0.692
FQLENYCNGGG [INS_Y108_YF] | inactive: 1.98
MTRDIYETDYY [INSR_Y1185] | inactive: 0.662
ITRDIYETDFF [INSR_Y1185_M1180I_YF] | inactive: 0.731
IFETDYFRKGG [INSR_Y1189_YF] | inactive: 0.821
YETDYYQKGGK [INSR_Y1190_R1191Q] | inactive: 0.704
FETDFYRKGGK [INSR_Y1190_YF] | inactive: 0.395
EEHIPCTHMNG [INSR_Y1361_Y1361C] | inactive: 1.59
RHFTGYRIELQ [INSR_Y818] | active: 3.39
RHFTGCRIELQ [INSR_Y818_Y818C] | inactive: 1.78
IMITDYLLLFR [INSR_Y87] | inactive: 2.51
PLFRVYGLESL [INSR_Y94_L89P] | inactive: 1.04
PLGPLYASSNT [INSR_Y992_P997T] | inactive: 1.14
SSNPEYLSASD [INSR_Y999] | inactive: 0.473

What follows are binders tested against SHP2 C-SH2 domain wild-type in the same assay as above. Conditions: peptide library: pTyr-Var.

Binder | enrichment score
SFPPTYRFERG [INPPL1_Y661_YF] | inactive: 0.79
PPTYRYERGSR [INPPL1_Y663] | inactive: 0.232
PSTYRYERGSR [INPPL1_Y663_P659S] | inactive: 0.408
NNPAYYVLEGV [INPPL1_Y987] | inactive: 0.848
SNPAYYVLEGV [INPPL1_Y987_N982S] | inactive: 0.894
FQLENCCNGGG [INS_Y108_Y108C_YF] | inactive: 0.646
FQLENYCNGGG [INS_Y108_YF] | inactive: 0.949
MTRDIYETDYY [INSR_Y1185] | inactive: 0.58
ITRDIYETDFF [INSR_Y1185_M1180I_YF] | inactive: 0.903
IFETDYFRKGG [INSR_Y1189_YF] | inactive: 0.846
YETDYYQKGGK [INSR_Y1190_R1191Q] | inactive: 0.457
FETDFYRKGGK [INSR_Y1190_YF] | inactive: 0.347
EEHIPCTHMNG [INSR_Y1361_Y1361C] | inactive: 2.53
RHFTGYRIELQ [INSR_Y818] | inactive: 3.1
RHFTGCRIELQ [INSR_Y818_Y818C] | inactive: 1.67
IMITDYLLLFR [INSR_Y87] | inactive: 2.51
PLFRVYGLESL [INSR_Y94_L89P] | inactive: 1.16
PLGPLYASSNT [INSR_Y992_P997T] | inactive: 1.01
SSNPEYLSASD [INSR_Y999] | inactive: 0.394

What follows are binders tested against SHP2 N-SH2 domain L43F in the same assay as above. Conditions: peptide library: pTyr-Var.

Binder | enrichment score
SFPPTYRFERG [INPPL1_Y661_YF] | inactive: 0.773
PPTYRYERGSR [INPPL1_Y663] | inactive: 0.253
PSTYRYERGSR [INPPL1_Y663_P659S] | inactive: 0.371
NNPAYYVLEGV [INPPL1_Y987] | inactive: 0.821
SNPAYYVLEGV [INPPL1_Y987_N982S] | inactive: 0.956
FQLENCCNGGG [INS_Y108_Y108C_YF] | inactive: 1.11
FQLENYCNGGG [INS_Y108_YF] | inactive: 1.91
MTRDIYETDYY [INSR_Y1185] | inactive: 0.675
ITRDIYETDFF [INSR_Y1185_M1180I_YF] | inactive: 1
IFETDYFRKGG [INSR_Y1189_YF] | inactive: 0.836
YETDYYQKGGK [INSR_Y1190_R1191Q] | inactive: 0.739
FETDFYRKGGK [INSR_Y1190_YF] | inactive: 0.565
EEHIPCTHMNG [INSR_Y1361_Y1361C] | inactive: 2.13
RHFTGYRIELQ [INSR_Y818] | active: 3.57
RHFTGCRIELQ [INSR_Y818_Y818C] | inactive: 1.3
IMITDYLLLFR [INSR_Y87] | inactive: 2.4
PLFRVYGLESL [INSR_Y94_L89P] | inactive: 1.25
PLGPLYASSNT [INSR_Y992_P997T] | inactive: 0.904
SSNPEYLSASD [INSR_Y999] | inactive: 0.452

Each binder was assayed against SHP2 N-SH2 domain T42A in the same assay as above. Conditions: peptide library: pTyr-Var.

Binder | enrichment score
SFPPTYRFERG [INPPL1_Y661_YF] | inactive: 0.685
PPTYRYERGSR [INPPL1_Y663] | inactive: 0.219
PSTYRYERGSR [INPPL1_Y663_P659S] | inactive: 0.411
NNPAYYVLEGV [INPPL1_Y987] | inactive: 0.614
SNPAYYVLEGV [INPPL1_Y987_N982S] | inactive: 0.894
FQLENCCNGGG [INS_Y108_Y108C_YF] | inactive: 0.768
FQLENYCNGGG [INS_Y108_YF] | inactive: 1.13
MTRDIYETDYY [INSR_Y1185] | inactive: 0.605
ITRDIYETDFF [INSR_Y1185_M1180I_YF] | inactive: 0.928
IFETDYFRKGG [INSR_Y1189_YF] | inactive: 0.623
YETDYYQKGGK [INSR_Y1190_R1191Q] | inactive: 0.587
FETDFYRKGGK [INSR_Y1190_YF] | inactive: 0.534
EEHIPCTHMNG [INSR_Y1361_Y1361C] | inactive: 1.6
RHFTGYRIELQ [INSR_Y818] | inactive: 2.81
RHFTGCRIELQ [INSR_Y818_Y818C] | inactive: 1.25
IMITDYLLLFR [INSR_Y87] | inactive: 1.88
PLFRVYGLESL [INSR_Y94_L89P] | inactive: 0.935
PLGPLYASSNT [INSR_Y992_P997T] | inactive: 0.672
SSNPEYLSASD [INSR_Y999] | inactive: 0.474

The binders below were run against SHP2 N-SH2 domain T52S in the same assay as above. Conditions: peptide library: pTyr-Var.

Binder | enrichment score
SFPPTYRFERG [INPPL1_Y661_YF] | inactive: 0.807
PPTYRYERGSR [INPPL1_Y663] | inactive: 0.215
PSTYRYERGSR [INPPL1_Y663_P659S] | inactive: 0.255
NNPAYYVLEGV [INPPL1_Y987] | inactive: 0.872
SNPAYYVLEGV [INPPL1_Y987_N982S] | inactive: 1
FQLENCCNGGG [INS_Y108_Y108C_YF] | inactive: 0.6
FQLENYCNGGG [INS_Y108_YF] | inactive: 1.5
MTRDIYETDYY [INSR_Y1185] | inactive: 0.603
ITRDIYETDFF [INSR_Y1185_M1180I_YF] | inactive: 1.18
IFETDYFRKGG [INSR_Y1189_YF] | inactive: 0.739
YETDYYQKGGK [INSR_Y1190_R1191Q] | inactive: 0.509
FETDFYRKGGK [INSR_Y1190_YF] | inactive: 0.493
EEHIPCTHMNG [INSR_Y1361_Y1361C] | inactive: 2.46
RHFTGYRIELQ [INSR_Y818] | active: 3.4
RHFTGCRIELQ [INSR_Y818_Y818C] | inactive: 1.6
IMITDYLLLFR [INSR_Y87] | inactive: 2.27
PLFRVYGLESL [INSR_Y94_L89P] | inactive: 0.908
PLGPLYASSNT [INSR_Y992_P997T] | inactive: 0.728
SSNPEYLSASD [INSR_Y999] | inactive: 0.415

These binders were tested against SHP2 N-SH2 domain wild-type in the same assay as above. Conditions: peptide library: pTyr-Var.

Binder | enrichment score
SFPPTYRFERG [INPPL1_Y661_YF] | inactive: 0.826
PPTYRYERGSR [INPPL1_Y663] | inactive: 0.268
PSTYRYERGSR [INPPL1_Y663_P659S] | inactive: 0.372
NNPAYYVLEGV [INPPL1_Y987] | inactive: 0.786
SNPAYYVLEGV [INPPL1_Y987_N982S] | inactive: 0.782
FQLENCCNGGG [INS_Y108_Y108C_YF] | inactive: 0.729
FQLENYCNGGG [INS_Y108_YF] | inactive: 1.58
MTRDIYETDYY [INSR_Y1185] | inactive: 0.861
ITRDIYETDFF [INSR_Y1185_M1180I_YF] | inactive: 1.24
IFETDYFRKGG [INSR_Y1189_YF] | inactive: 0.819
YETDYYQKGGK [INSR_Y1190_R1191Q] | inactive: 0.608
FETDFYRKGGK [INSR_Y1190_YF] | inactive: 0.433
EEHIPCTHMNG [INSR_Y1361_Y1361C] | inactive: 2.07
RHFTGYRIELQ [INSR_Y818] | active: 3.39
RHFTGCRIELQ [INSR_Y818_Y818C] | inactive: 1.53
IMITDYLLLFR [INSR_Y87] | inactive: 2.52
PLFRVYGLESL [INSR_Y94_L89P] | inactive: 0.801
PLGPLYASSNT [INSR_Y992_P997T] | inactive: 0.807
SSNPEYLSASD [INSR_Y999] | inactive: 0.534
